{
  "source": "the supplement of paper PMC8512760",
  "note": "The other results are listed elsewhere or left out. Many values rest on one well or one pass, so single values are uncertain.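 Also: stably firefly luciferase-GFP labeled cells in 96-well plates, viability read as luciferase photon flux after d-luciferin addition, treated wells normalized to vehicle wells, single-dose high-throughput screen.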",
  "data": [
    {"system": "HCC-1143", "test": "cell viability relative to vehicle (% of vehicle); basal-like triple-negative breast cancer lines; higher = less cytotoxic", "conditions": "10 µM; 72 h", "values": [
      {"compound": "CN(Cc1ccc(C(C)(C)C)cc1)Cc1cccc2ccccc12.Cl", "note": "[Butenafine HCl]", "cell viability": 72.3},
      {"compound": "CCCCc1ncc(C=C(Cc2cccs2)C(=O)O)n1Cc1ccc(C(=O)O)cc1.CS(=O)(=O)O", "note": "[Eprosartan Mesylate]", "cell viability": 113},
      {"compound": "Clc1ccc(C(c2ccccc2Cl)C(Cl)Cl)cc1", "note": "(stereo not given) [Mitotane (Lsodren)]", "cell viability": 88.5},
      {"compound": "COc1ccc2cc([C@H](C)C(=O)[O-])ccc2c1.[Na+]", "note": "[Naproxen Sodium]", "cell viability": 69.8},
      {"compound": "CCC1OC(=O)CC(O)C(C)C(OC2OC(C)C(O)C(N(C)C)C2O)C(CCN2CC(C)CC(C)C2)CC(C)C(=O)C=CC(C)=CC1COC1OC(C)C(O)C(OC)C1OC", "note": "(stereo not given) [Tilmicosin]", "cell viability": 93.4},
      {"compound": "O=c1c(-c2ccc(O)cc2)coc2cc(O)cc(O)c12", "note": "[Genistein]", "cell viability": 141},
      {"compound": "COC(=O)C(Cc1ccccc1)NC(=O)C(N)CC(=O)O", "note": "(stereo not given) [Aspartame]", "cell viability": 103},
      {"compound": "COc1ccc(CC2c3cc(OC)c(OC)cc3CC[N+]2(C)CCC(=O)OCCCCCOC(=O)CC[N+]2(C)CCc3cc(OC)c(OC)cc3C2Cc2ccc(OC)c(OC)c2)cc1OC.O=S(=O)([O-])c1ccccc1.O=S(=O)([O-])c1ccccc1", "note": "(stereo not given) [Atracurium Besylate]", "cell viability": 85.4},
      {"compound": "CSc1nc2cc(Oc3cccc(Cl)c3Cl)c(Cl)cc2[nH]1", "note": "[Triclabendazole]", "cell viability": 75.5},
      {"compound": "CCCc1nc(C(C)(C)O)c(C(=O)O)n1Cc1ccc(-c2ccccc2-c2nn[nH]n2)cc1", "note": "[Olmesartan]", "cell viability": 98.7},
      {"compound": "CCCCCCCCCCCCCCCCOP(=O)([O-])OCC[N+](C)(C)C", "note": "[Miltefosine]", "cell viability": 78.7},
      {"compound": "CC(C)(C)c1cc(NC(=O)Nc2ccc(-c3cn4c(n3)sc3cc(OCCN5CCOCC5)ccc34)cc2)no1", "note": "[Quizartinib (AC220)]", "cell viability": 34.4},
      {"compound": "CC(C)NCC(O)COc1ccc(CCOCC2CC2)cc1.Cl", "note": "(stereo not given) [Levobetaxolol HCl]", "cell viability": 74.2},
      {"compound": "C=C1C(=CC=C2CCCC3(C)C2CCC3C(C)C=CC(C)C(C)C)CC(O)CC1O", "note": "(stereo not given) [Doxercalciferol]", "cell viability": 94.3},
      {"compound": "CCCC(=O)OCOC(=O)C1=C(C)NC(C)=C(C(=O)OC)C1c1cccc(Cl)c1Cl", "note": "(stereo not given) [Clevidipine Butyrate]", "cell viability": 85},
      {"compound": "NC(CSCCCO)C(=O)O", "note": "(stereo not given) [Fudosteine]", "cell viability": 84.9},
      {"compound": "Cc1cc(C(C)(C)C)cc(C)c1CC1=NCCN1.Cl", "note": "[Xylometazoline HCl]", "cell viability": 92.9},
      {"compound": "Cc1cc(=O)[nH]c(=S)[nH]1", "note": "[Methylthiouracil]", "cell viability": 70.7},
      {"compound": "C[N+]1(C)[C@@H]2C[C@@H](OC(=O)C(O)(c3cccs3)c3cccs3)C[C@H]1[C@@H]1O[C@@H]12.[Br-]", "note": "[Tiotropium Bromide]", "cell viability": 102},
      {"compound": "CNC1CCC(c2ccc(Cl)c(Cl)c2)c2ccccc21.Cl", "note": "(stereo not given) [Sertraline HCl]", "cell viability": 66.7},
      {"compound": "COc1cc(Nc2ncc(F)c(Nc3ccc4c(n3)N(COP(=O)(O)O)C(=O)C(C)(C)O4)n2)cc(OC)c1OC", "note": "[Fostamatinib (R788)]", "cell viability": 41},
      {"compound": "C1N2CN3CN1CN(C2)C3", "note": "[Methenamine]", "cell viability": 78.6},
      {"compound": "CC(C)(C#N)c1cc(Cn2cncn2)cc(C(C)(C)C#N)c1", "note": "[Anastrozole]", "cell viability": 114},
      {"compound": "CCCCCCNC(=O)n1cc(F)c(=O)[nH]c1=O", "note": "[Carmofur]", "cell viability": 83},
      {"compound": "Cc1cc(NS(=O)(=O)c2ccc(N)cc2)no1", "note": "[Sulfamethoxazole]", "cell viability": 134},
      {"compound": "CC12C=CC(=O)C=C1CCC1C2C(=O)CC2(C)C1CCC2(O)C(=O)CO", "note": "(stereo not given) [Prednisone]", "cell viability": 81.3},
      {"compound": "CC(O)C1C(=O)N2C(C(=O)O)=C(SC3CNC(C(=O)N(C)C)C3)C(C)C12", "note": "(stereo not given) [Meropenem]", "cell viability": 77.9},
      {"compound": "CCN(CC)CCOc1ccc(C(=C(Cl)c2ccccc2)c2ccccc2)cc1.O=C(O)CC(O)(CC(=O)O)C(=O)O", "note": "[Clomiphene citrate]", "cell viability": 90.1},
      {"compound": "C#Cc1cccc(Nc2ncnc3cc(OC)c(OCCCCCCC(=O)NO)cc23)c1", "cell viability": 66},
      {"compound": "CS(=O)(=O)Nc1ccc([N+](=O)[O-])cc1Oc1ccccc1", "note": "[Nimesulide]", "cell viability": 129}
    ]}
  ]
}
